Data on one compound can be found in PubChem BioAssay (NCI).

The subject of the assay is NCI-H322M lung. As to the kind of experiment: NCI tumour cell line growth inhibition, 48 h.

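Exposure lasted 48 hours, with cells grown in 96-well plates and compounds tested at five concentrations. At the GI50, growth is halved. TGI marks complete inhibition of growth.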

In the case of `Cc1ccc2ccc3ccc(C)nc3c2n1.Cc1ccc2ccc3ccc(C)nc3c2n1.Oc1c(Cl)cc(Cl)c2ccc(CN3CCCCC3)nc12.[Ru]`, the GI50 is 539 nM and the TGI turned out to be 3230 nM.
